Test results from PMC6212790.
Some of the results follow. At the low end of the ranking, values are background and their order means little.

molecular target: T1, GST-Rok (full length) (UniProt O34857); experiment: protein binding microarray; conditions: Rok is a gene silencer of Bacillus subtilis; high values mean tight binding; most listed sequences are background and not binding sites; double strand, one strand shown;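 also: rank score from −0.5 (least bound) to 0.5 (best bound)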
T1 sequence: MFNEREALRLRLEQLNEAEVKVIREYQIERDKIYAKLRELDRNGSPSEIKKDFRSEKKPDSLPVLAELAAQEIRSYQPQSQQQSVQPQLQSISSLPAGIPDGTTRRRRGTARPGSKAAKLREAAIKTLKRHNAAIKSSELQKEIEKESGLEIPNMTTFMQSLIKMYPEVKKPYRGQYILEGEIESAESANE

Row | Sequence | binding signal
1 | GTCCATGA | -0.165 E-score
2 | GCGACTCC | -0.221 E-score
3 | CGAAACAG | -0.14 E-score
4 | GAGATTAA | 0.223 E-score
5 | CACCACCG | 0.0663 E-score
6 | CTACCAGA | 0.218 E-score
7 | ACAATTGG | 0.119 E-score
8 | ACGCATTC | -0.136 E-score
9 | GGATGCGA | -0.225 E-score
10 | ACGCGTTG | -0.0571 E-score
11 | ACTGAGCT | 0.0701 E-score
12 | TAATGAGA | 0.155 E-score
13 | CCGAACGA | -0.122 E-score
14 | GAGCCGCC | -0.216 E-score
15 | CAGGATTA | 0.0318 E-score
16 | AATTTGGA | 0.0892 E-score
17 | GCACGCAC | -0.0999 E-score
18 | ACCGATCG | -0.0485 E-score
19 | CGCCAGAA | -0.119 E-score
20 | AGTGTCTC | -0.17 E-score
21 | ACTAAAGT | 0.109 E-score
22 | CGTACCAA | 0.0712 E-score
23 | AAGGCTGA | -0.082 E-score
24 | AGTGGTCC | -0.177 E-score
25 | CACATAGA | 0.254 E-score

Row | Sequence | binding signal
26 | CTTAGGCC | -0.319 E-score
27 | GATCTCTA | -0.054 E-score
28 | GCTCAGTA | 0.122 E-score
29 | TAAACCTA | 0.181 E-score
30 | TATCCCCA | -0.202 E-score
31 | CCCCCTAG | -0.298 E-score
32 | CAAGAGAC | -0.191 E-score
33 | ATCATGGC | 0.000586 E-score
34 | AAAGCTAG | 0.152 E-score
35 | GCACTAGC | -0.166 E-score
36 | GGATAATA | 0.287 E-score
37 | CGGGACGA | -0.0426 E-score
38 | CGGCCTTA | -0.267 E-score
39 | GAGGAATC | -0.0594 E-score
40 | GCCAATAA | 0.231 E-score
41 | AACGCAAA | 0.0745 E-score
42 | TCGTTACA | 0.184 E-score
43 | AGTATTCG | 0.0541 E-score
44 | CACTCAGC | -0.0194 E-score
45 | GCGTCTCC | -0.259 E-score
46 | ATGGAAAG | 0.0377 E-score
47 | GCGGCTCA | -0.284 E-score
48 | CGTAACGC | -0.0429 E-score
49 | AAAGGGTT | -0.0772 E-score
50 | CCGCAGTC | -0.281 E-score

Row | Sequence | binding signal
51 | GTGAACAC | 0.0524 E-score
52 | GAGTTTGA | -0.199 E-score
53 | CGCACCCG | -0.282 E-score
54 | AGACGGCG | -0.192 E-score
55 | CACTATGC | 0.152 E-score
56 | CATATCCG | 0.112 E-score
57 | TGCGCCAA | -0.208 E-score
58 | GGCCTACA | 0.0878 E-score
59 | CGCGCATC | -0.123 E-score
60 | GGTTGGAA | -0.0516 E-score
61 | ATCGCACG | -0.15 E-score
62 | TGATTTAA | 0.0613 E-score
63 | CAAAACCC | -0.244 E-score
64 | ATAGAGTC | -0.171 E-score
65 | CGGTTTTC | -0.114 E-score
66 | ATCTTATG | 0.171 E-score
67 | AGTACCAT | 0.216 E-score
68 | CTCTATTA | 0.0982 E-score
69 | GACATTGA | 0.0113 E-score
70 | ACCACAAC | 0.154 E-score
71 | ACTACAGT | 0.168 E-score
72 | CCCGGCGC | -0.483 E-score
73 | GTCTAAAC | 0.09 E-score
74 | AATTGTAA | 0.317 E-score
75 | GTGCAAGA | 0.114 E-score

Row | Sequence | binding signal
76 | AATGATCA | 0.2 E-score
77 | CTTGTGCA | 0.00086 E-score
78 | AGCCCACG | -0.162 E-score
79 | GAAACTAC | 0.469 E-score
80 | CGTTGAAC | -0.111 E-score
81 | CTTCGCGC | 0.102 E-score
82 | CTCCCTGC | -0.263 E-score
83 | ATACTCAT | 0.182 E-score
84 | AATTCTAC | 0.435 E-score
85 | CCATAAGC | -0.083 E-score
86 | AGGCTGCC | -0.372 E-score
87 | GATTGTGC | -0.0481 E-score
88 | CCGTTCAA | -0.00017 E-score
89 | TACCGTCA | 0.0267 E-score
90 | CCCTTCTA | -0.0759 E-score
91 | CAGCACCC | -0.214 E-score
92 | GCTGTTTA | 0.0322 E-score
93 | CACGTACC | -0.25 E-score
94 | GACCCTCC | -0.348 E-score
95 | ACCAACGC | -0.141 E-score
96 | CCTATGTA | 0.25 E-score
97 | CAACCACG | -0.0285 E-score
98 | AGAACCGC | -0.0628 E-score
99 | AAGCTTGA | -0.194 E-score
100 | GCGTGCGA | -0.208 E-score

Row | Sequence | binding signal
101 | GCGAGCCC | -0.296 E-score
102 | ACGCTAAG | 0.0725 E-score
103 | GGCCTTTA | -0.154 E-score
104 | CACCTGCG | -0.189 E-score
105 | AGTGAACT | 0.0515 E-score
106 | CTAGACTA | 0.0402 E-score
107 | AAACCGAG | -0.199 E-score
108 | ATACCTGA | -0.0564 E-score
109 | CCAAGAAA | 0.0714 E-score
110 | GCGAGTTA | 0.0782 E-score
111 | AACCCTCG | -0.254 E-score
112 | AAATACTC | 0.227 E-score
113 | CCCTCGAA | -0.252 E-score
114 | GGTCAGTA | 0.0787 E-score
115 | GACGTGAA | 0.164 E-score
116 | AAGCGGTA | 0.228 E-score
117 | CTAAAGTA | 0.192 E-score
118 | AGGAAGGA | -0.148 E-score
119 | AATCCGGC | -0.0136 E-score
120 | CGCAATAG | 0.202 E-score
121 | CTTAAAAC | -0.0833 E-score
122 | AATACCAT | 0.334 E-score
123 | ACACCCCA | -0.244 E-score
124 | CACGCTCG | -0.153 E-score
125 | ACCCGCAA | -0.0563 E-score

Row | Sequence | binding signal
126 | GAAAGGCC | -0.223 E-score
127 | GTTAGGAA | 0.0218 E-score
128 | AACCAAAC | -0.093 E-score
129 | ACCCCGGG | -0.337 E-score
130 | AATACCCA | 0.203 E-score
131 | TCATTGGA | 0.0185 E-score
132 | ATCATATC | 0.152 E-score
133 | CTGGCCGC | -0.247 E-score
134 | AGATATAA | 0.183 E-score
135 | CTAACCGC | -0.174 E-score
136 | GGATTGAC | -0.0238 E-score
137 | TCGTGCAA | 0.058 E-score
138 | GAATGGAA | -0.0613 E-score
139 | ATTCGCCA | -0.0244 E-score
140 | CACCATCA | -0.109 E-score
141 | CACACACC | 0.00266 E-score
142 | AGGCGCAT | -0.126 E-score
143 | ATAGGTGC | -0.0785 E-score
144 | CATTAGGC | -0.146 E-score
145 | CGGAAATA | 0.125 E-score
146 | TGGCGCCA | -0.386 E-score
147 | CACTGCTC | -0.276 E-score
148 | AAAGCTGA | -0.174 E-score
149 | AGGATAAA | 0.0101 E-score
150 | AAAGCGCA | -0.14 E-score

Row | Sequence | binding signal
151 | CTAGATCA | 0.212 E-score
152 | CGATCGTC | -0.0643 E-score
153 | ATTTACGG | 0.243 E-score
154 | CCAAATAC | 0.169 E-score
155 | ACGGGCAT | -0.146 E-score
156 | CAGGCACA | -0.0806 E-score
157 | CGCTTATA | 0.174 E-score
158 | AAAAAATG | -0.0454 E-score
159 | GGGATAAA | -0.101 E-score
160 | AAAACTTG | -0.187 E-score
161 | GGGACGCA | -0.274 E-score
162 | ACGCAAGC | 0.0878 E-score
163 | ACCAAATA | 0.216 E-score
164 | ACCGTCTA | 0.0617 E-score
165 | GCTCTATA | 0.0683 E-score
166 | CCAAAGCG | -0.211 E-score
167 | GGGTGGCA | -0.26 E-score
168 | AAAGATAA | 0.322 E-score
169 | GAAAGCGA | -0.0562 E-score
170 | ATGATTCA | -0.0428 E-score
171 | AACAAAAC | -0.0461 E-score
172 | CGTCTGTA | 0.0878 E-score
